According to article PMC4336329 (PLoS ONE, 2015):
Out of some 310,000 compounds screened, about 2,200 (0.71%) showed an effect of 50% or more. Effects have a minus sign here. The list shows a part of the results.

These compounds were tested against human ether-à-go-go-related gene (hERG) potassium channel (human, UniProt Q12809) (assay: primary screen, population patch clamp on CHO cells stably expressing hERG).
Chain of human ether-à-go-go-related gene (hERG) potassium channel (Q12809 whole entry, looked up): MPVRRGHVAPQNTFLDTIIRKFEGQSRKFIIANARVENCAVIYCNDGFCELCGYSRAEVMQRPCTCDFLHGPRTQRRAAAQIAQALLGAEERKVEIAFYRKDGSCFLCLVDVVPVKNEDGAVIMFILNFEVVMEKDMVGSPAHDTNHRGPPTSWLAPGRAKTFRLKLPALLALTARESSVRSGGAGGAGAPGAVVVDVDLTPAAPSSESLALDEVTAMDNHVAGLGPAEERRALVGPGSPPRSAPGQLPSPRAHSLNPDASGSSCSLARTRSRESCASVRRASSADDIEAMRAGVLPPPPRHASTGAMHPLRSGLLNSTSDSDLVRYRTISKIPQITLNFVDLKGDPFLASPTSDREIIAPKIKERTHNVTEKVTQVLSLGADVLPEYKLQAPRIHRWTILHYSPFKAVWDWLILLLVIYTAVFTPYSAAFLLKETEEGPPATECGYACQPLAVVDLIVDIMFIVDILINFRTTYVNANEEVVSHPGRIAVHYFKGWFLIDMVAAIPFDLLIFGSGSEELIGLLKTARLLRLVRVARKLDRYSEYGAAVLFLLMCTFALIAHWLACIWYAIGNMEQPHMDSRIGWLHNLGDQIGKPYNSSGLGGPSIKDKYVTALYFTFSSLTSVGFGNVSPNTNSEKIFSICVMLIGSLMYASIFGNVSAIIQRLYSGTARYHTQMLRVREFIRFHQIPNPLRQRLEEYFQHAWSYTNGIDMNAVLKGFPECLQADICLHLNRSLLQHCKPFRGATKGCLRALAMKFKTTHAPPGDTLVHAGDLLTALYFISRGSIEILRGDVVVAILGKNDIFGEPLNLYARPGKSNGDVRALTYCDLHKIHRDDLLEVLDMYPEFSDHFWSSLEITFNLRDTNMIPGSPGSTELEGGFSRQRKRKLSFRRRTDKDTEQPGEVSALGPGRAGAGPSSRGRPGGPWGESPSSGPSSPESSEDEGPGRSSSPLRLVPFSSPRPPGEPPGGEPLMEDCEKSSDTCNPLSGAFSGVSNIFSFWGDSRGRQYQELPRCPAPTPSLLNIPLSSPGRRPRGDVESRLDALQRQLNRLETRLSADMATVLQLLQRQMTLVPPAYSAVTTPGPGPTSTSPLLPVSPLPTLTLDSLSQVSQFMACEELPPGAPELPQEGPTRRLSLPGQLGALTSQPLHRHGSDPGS

| SMILES | hERG current change (%, negative = inhibition) at 1uM [%] |
| --- | --- |
| COc1ccc(S(=O)(=O)N/N=C(/C)c2ccc(C)o2)cc1 | 7.39 |
| CC(C)C(NC(=O)CSc1ccc(Cl)cc1)C(C)C | 8.13 |
| O=C(C1CCN(c2nc(-c3ccccc3)nc3c2CCC3)CC1)N1CCCC1 | -11.1 |
| C=CCn1c(SCC(=O)N2CCOCC2)nc(O)cc1=O | 11.7 |
| O=C(CN1CCN(c2cccc(C(F)(F)F)c2)CC1)N(C1CCCC1)C1CCS(=O)(=O)C1 (stereo not drawn) | 6.67 |
| CC(=O)OC1N=C(c2ccccc2)c2cc(Br)ccc2N(C)C1=O (stereo not drawn) | 4.1 |
| COCCNCc1ccccc1[N+](=O)[O-] | 8.17 |
| C=CCn1c(CNS(=O)(=O)c2ccc(F)cc2)n[nH]c1=S | 1.53 |
| CCCn1c(=O)[nH]c(=O)c2c1nc(-c1ccccc1)n2CCN1CCOCC1 | 6.02 |
| O=C(CCNC(=O)c1ccc(Br)cc1)NCc1cccnc1 | 12.9 |
| Cn1ccnc1SCC(=O)Nc1cccc(S(=O)(=O)N2CCCCCC2)c1 | 8.44 |
| Cc1ccnc(NC(=O)c2ccc(Br)s2)c1.Cl | 5.59 |
| COc1ccc(C2(CNC(=O)c3ccc(OC)c([N+](=O)[O-])c3)CCCCC2)cc1OC | 13.8 |
| O=S(=O)(NC1CCCCC1Oc1ccccc1)c1ccc(Cl)cc1 (stereo not drawn) | -4.69 |
| O=C(C[n+]1cn(C(F)F)c2ccccc21)c1ccc(Br)cc1.[Br-] | 3.52 |
| COc1ccc(S(=O)(=O)N2CCOCC2)cc1NC(=O)CNC(=O)c1cccs1 | 15.6 |
| O=C(Nc1cccc(S(=O)(=O)N2CCCC2)c1)c1ccccc1OC(F)F | 8.5 |
| Oc1ccc(Br)cc1CNc1cnc2ccccc2c1 | 13.7 |
| CCc1ccc(NC(=O)[C@H](NC(=O)[C@@H]2Cc3ccccc3CN2)c2ccccc2)cc1 | 6.98 |
| CCCNS(=O)(=O)c1ccc(OCC(=O)Nc2ccc3c(c2)OCCO3)cc1 | 1.97 |
| CC(=O)NC1(c2cccc(F)c2)CCN(CC(=O)NC2CCCCC2)CC1 | 2.4 |
| COc1ccc(/C=C/C(=O)NNC(=O)c2ccncc2)c(OC)c1 | 7.31 |
| Cc1cccc(C)c1Nc1nnc(SCC(=O)NCc2cccs2)s1 | 2.57 |

| SMILES | hERG current change (%, negative = inhibition) at 1uM [%] |
| --- | --- |
| N#CCC(=O)Nc1ncn(Cc2ccccc2Cl)n1 | 14.3 |
| O=C(CSc1nnc2sc3ccccc3n12)NCc1ccco1 | 15.4 |
| COc1cc2c3nnc(-c4ccc(F)cc4)c-3cn(Cc3ccccc3)c2cc1OC | 7.7 |
| CCn1c(Cl)c(C=O)s/c1=N\S(=O)(=O)c1ccccc1 | 15.2 |
| COC1c2ccccc2C(=O)N1Cc1ccc(F)cc1 (stereo not drawn) | 12.6 |
| NC(=O)C(c1ccccc1)C1CCCCC1 (stereo not drawn) | 4.62 |
| COCCn1cnnc1SCC(=O)c1ccc(S(=O)(=O)N2CCCC2)cc1 | 10.8 |
| CC(=O)c1ccc(NC(=O)COC(=O)c2c3c(nc4ccccc24)/C(=C\c2cccs2)CCC3)cc1 | 9.77 |
| COc1cc(OC)cc(C(=O)OCc2cc3ccccc3[nH]c2=O)c1 | 8.7 |
| COc1ccccc1-n1c(C)cc(C=O)c1C | 8.45 |
| CC(NCC1(N2CCOCC2)CCCCC1)C(=O)N1CCc2ccccc21.O=C(O)C(=O)O (stereo not drawn) | 7.84 |
| Cc1ccccc1CSc1nncn1N | 7.14 |
| CC(C)N(Cc1nc(-c2ccccc2)no1)C(=O)c1ccc([N+](=O)[O-])cc1 | -6.76 |
| COc1ccc(CNc2ccccc2)cc1Br | -9.21 |
| Cc1c(NC(=O)c2cccnc2)c(=O)n(-c2ccccc2)n1C | 8.22 |
| Cc1ccc(-c2nc(Cl)nc3ccccc23)cc1 | 16.9 |
| COC(=O)c1ccc(NC(=O)c2cc(Cl)ccc2OC)cc1 | 20.5 |
| COc1cc(/C=C(\NC(=O)c2ccccc2)C(=O)NCC(=O)O)c([N+](=O)[O-])cc1OC | 15.7 |
| COc1ccc(-n2c(SCC(=O)Nc3cc(C(=O)O)ccc3C)nc3ccccc3c2=O)cc1Cl | 14.3 |
| Cc1cccc(N2CC(C(=O)O)CC2=O)c1 (stereo not drawn) | -0.186 |
| O=C(CN1C(=O)NC2(CCCC2)C1=O)Nc1nc(-c2ccc(F)c(F)c2)cs1 | 0.722 |
| O=C(NCCc1ccccc1)C(c1ccncc1)N(C(=O)c1csnn1)C1CC1 (stereo not drawn) | 4.45 |
| Cc1cccc(N(C(=O)c2nsc(Cl)c2Cl)C(C(=O)NC2CCCC2)c2ccc(O)cc2)c1 (stereo not drawn) | 4.38 |

| SMILES | hERG current change (%, negative = inhibition) at 1uM [%] |
| --- | --- |
| Oc1cc(-c2ccccc2)c2ccccc2c1 | 12.5 |
| C/C(=N\N=C(N)N)c1cccc(Cl)c1 | 7.13 |
| CCOc1ccc(-c2cc(C(=O)N/N=C/c3cccnc3)c3ccccc3n2)cc1 | 7.73 |
| CN(CC(=O)Nc1cccc(F)c1)C(=O)c1ccc(N2CCCCCC2)c([N+](=O)[O-])c1 | 12.6 |
| CCc1cccc(C)c1NC(=O)C(c1ccc(O)cc1)N1CCC1=O (stereo not drawn) | 14.9 |
| COc1ccc(CCNC(=O)CSc2nnnn2-c2ccccc2)cc1 | -1.76 |
| COc1ccc(-c2onc(C)c2-c2cnn(-c3ccccc3)c2)c(O)c1C | 11.7 |
| Cc1c(-c2ccco2)[n+](=O)c2c(n1[O-])CCC2 | 9.94 |
| Cc1cc(NC(=O)CSCc2ccccc2C)no1 | 9.86 |
| O=C(CN1C(=O)C2CCCCC2C1=O)N1CCN(c2ccccc2)CC1 (stereo not drawn) | 14.8 |
| CC(OC(=O)c1cccc(S(=O)(=O)N(C)C)c1)C(=O)NCc1ccc2c(c1)OCO2 (stereo not drawn) | 9.34 |
| CC(CC(=O)N(C)C1CCCCC1)S(=O)(=O)c1ccc2c(c1)NC(=O)CO2 (stereo not drawn) | 15.4 |
| O=C(COc1ccc(S(=O)(=O)N2CCOCC2)cc1Cl)NCC1CCCO1 (stereo not drawn) | 12 |
| CC(C)c1c(C(=O)N/N=C/c2ccc3c(c2)OCO3)nnn1-c1nonc1N | 15.5 |
| O=C(CCCCCNC(=S)Nc1ccc(Cl)cc1)C[N+](=O)[O-] | 8.23 |
| COc1ccc(N2CCn3c2nc2c3c(=O)n(CCCc3ccccc3)c(=O)n2C)c(OC)c1 | 10.2 |
| COc1ccc(-c2cn[nH]c2-c2ccc(OCc3ccccc3F)cc2O)cc1OC | 6.47 |
| Cc1c(C(=O)Nc2ccccc2)sc2nc(-c3ccccc3)cn12 | 6.33 |
| CCc1cc(C(N)=O)c(NC(=O)c2ccc(OC)cc2)s1 | 1.31 |
| Cl.c1ccc(OCCOCCN2CCc3ccccc3C2)cc1 | -10.1 |
| O=C(NOCc1ccccc1)c1ccc(Cl)cc1Cl | 10.3 |
| Cc1cc(C)cc(CN2C(=O)NC3(CCCCCC3)C2=O)c1 | 6.44 |
| CS(=O)(=O)c1ccc2nc(NC(=O)C3COc4ccccc4O3)sc2c1 (stereo not drawn) | 7.41 |

| SMILES | hERG current change (%, negative = inhibition) at 1uM [%] |
| --- | --- |
| S=C(Nc1ccc(Br)cc1Cl)NC1CCN(Cc2ccccc2)CC1 | 9.3 |
| COc1ccccc1N1CCN(C(=O)c2cc(-c3cccc(Cl)c3)on2)CC1 | 2.1 |
| CN1CCN(NC(=S)NC2CCCCC2)CC1 | 3.73 |
| FC(F)(F)c1ccccc1NC(=S)N1CCc2ccccc2C1 | 15.6 |
| CN1C(=O)C(c2nnc(Nc3cccc4ccccc34)s2)C2CC1(C)Oc1ccccc12 (stereo not drawn) | 2.76 |
| CCOc1cc(CO)c(Br)cc1OCC(=O)O | 2.28 |
| Cc1cccc(N2CCN(S(=O)(=O)c3cnc[nH]3)CC2)c1C | 17.8 |
| Fc1ccc(Cn2nnnc2CN2CCC(n3nnc4cc(C(F)(F)F)ccc43)CC2)cc1 | -38.7 |
| Cc1ccc([N+](=O)[O-])cc1NC(=O)Cc1ccc(F)cc1 | 13.7 |
| N#Cc1nc(COc2ccccc2)oc1N1CCCCC1 | 4.84 |
| NS(=O)(=O)c1ccc(CCNC(=O)CN2CCCCCC2)cc1 | 5.82 |
| CC1(C)CC(=O)C2=C(C1)N(CC1CCCO1)C(=O)C2(O)C(F)(F)F (stereo not drawn) | 4.33 |
| CCCOC(=O)COC(=O)c1ccccc1NC(=O)c1ccccc1 | 11 |
| Cc1ccc(C(C)NC(=O)Cn2nc(C)c([N+](=O)[O-])c2C)cc1 (stereo not drawn) | 4.75 |
| O=C(Nc1cccnc1)NC1CCCCC1 | 2.5 |
| Cc1cc(C(=O)Nc2cc(S(C)(=O)=O)ccc2Cl)no1 | 10.1 |
| C(=C/c1ccnc2nc(SC/C=C/c3ccccc3)nn12)/c1ccccc1 | 4.9 |
| Cc1cccc(OCCOC(=O)CN2C(=O)NC3(CCCC3)C2=O)c1 | 8.79 |
| O=C(c1cc2ccccc2oc1=O)N1CCN(S(=O)(=O)c2ccccc2)CC1 | 4.8 |
| COc1cc(C(=O)NCc2nnc(SCC(=O)N3CCc4ccccc43)o2)cc(OC)c1OC | 6.06 |
| CCOC(=O)NCCOC(=O)Nc1ccc(Cl)cc1 | -2.45 |
